{"source": "PubChem BioAssay AID894", "about": "(National Center for Advancing Translational Sciences (NCATS), 2007)", "note": "Hit rate of the full screen: of about 150,000 compounds, about 6,500 (4.3%) were called active. The shares of active, inactive and inconclusive entries below differ from those in the screen. Calls follow the shape of the dose curve; as a rule, active = well fitted inhibition curve with a large enough effect (not every such curve was filed as active); inconclusive = small, poorly fitted or top-dose-only effect, or another doubt; inactive = no such curve, though single readings can be large or run the other way. Potencies of inconclusive entries are left out as doubtful fits."}
{"molecular_target": "15-hydroxyprostaglandin dehydrogenase [NAD(+)] (Homo sapiens) (UniProt P15428)", "sequence (P15428 whole entry, looked up)": "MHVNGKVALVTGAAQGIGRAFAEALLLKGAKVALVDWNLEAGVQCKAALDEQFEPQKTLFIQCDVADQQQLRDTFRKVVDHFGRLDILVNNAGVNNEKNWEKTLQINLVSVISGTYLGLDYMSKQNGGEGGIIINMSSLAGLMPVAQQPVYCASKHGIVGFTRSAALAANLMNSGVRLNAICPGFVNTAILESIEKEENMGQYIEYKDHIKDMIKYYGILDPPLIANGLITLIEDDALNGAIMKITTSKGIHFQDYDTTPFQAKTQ", "assay": "qHTS Assay for Inhibitors of HPGD (15-Hydroxyprostaglandin Dehydrogenase); also: potency is read from the fitted curve at half-maximal effect; tags tell the direction and shape of the fitted curve; as to activity change, negative = inhibition: % is scaled to controls: 0 for no effect and ±100 for the full control effect", "conditions": "purified HPGD, NADH fluorescence kinetic, PGE2 substrate; activity change, negative = inhibition: active compounds read low", "method_in_brief": "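NADH formation kinetics: reaction with 30 uM PGE2 and 1 mM NAD+ (final), 20 nM enzyme, Tris-HCl pH 8 with Tween 20, after 15 min compound preincubation at room temperature. Fluorescence change, last versus first of five reads.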"}
{"compound": "COc1ccc(-c2nc(CSCC(=O)N3CCN(c4cccc(C)c4)C(C)C3)c(C)o2)cc1OC", "note": "(stereo unspecified)", "Potency": "inconclusive [inhibitor, partial curve]"}
{"compound": "COc1cc2c(cc1NC(=O)COc1ccccc1OC)oc1ccccc12", "Potency": "inconclusive [inhibitor, partial curve]"}
{"compound": "CCN1c2ccccc2-c2nc3ccccc3n2C1c1ccco1", "note": "(stereo unspecified)", "Potency": "inconclusive [inhibitor, partial curve]"}
{"compound": "CC(C)(O)[C@@H]1Cc2c(ccc3ccc(=O)oc23)O1", "Potency": "inconclusive [inhibitor, full curve]"}
{"compound": "CCc1ccc(-c2cc(C(F)(F)F)n3nc(C(=O)Nc4cnn(Cc5ccccc5C)c4)cc3n2)s1", "Potency": "inconclusive [inhibitor, partial curve]"}
{"compound": "CN1C(=O)NC(c2ccccc2)C2=C1CN(c1ccc3ccccc3c1)C2=O", "note": "(stereo unspecified)", "Potency": "inconclusive [inhibitor, partial curve]"}
{"compound": "CCCCC(=O)Nc1nn(CCC)c2nc3ccccc3cc12", "Potency": "inconclusive [inhibitor, partial curve]"}
{"compound": "O=C(CCC1N=C2c3ccccc3N=C(SCc3ccc(F)cc3)N2C1=O)NCc1ccco1", "note": "(stereo unspecified)", "Potency": "inconclusive [inhibitor, partial curve]"}
{"compound": "Cc1ccc2nc3c(cc(C#N)c(=O)n3-c3nccs3)c(=O)n2c1", "Potency": "inconclusive [inhibitor, partial curve]"}
{"compound": "COc1ccc(OCCCn2c(=O)oc3ccccc32)cc1", "Potency": "inconclusive [inhibitor, partial curve]"}
{"compound": "Cc1cc2ccc(OC(=O)c3ccc(N=C(N)N)cc3)cc2oc1=O", "Potency": "inconclusive [inhibitor, partial curve]"}
{"compound": "COc1cccc(/C=C2/SC(=S)N(CC(=O)Nc3nnc(C)s3)C2=O)c1", "activity change, negative = inhibition": "inactive: -15.9%"}
{"compound": "COC(=O)c1scc(C)c1NC(=O)C1CCCCC1", "activity change, negative = inhibition": "inactive: -13%"}
{"compound": "Cc1cc(C)n2nc(C(=O)Nc3ccc4c(c3)OCO4)nc2n1", "Potency": "active: 20 µM"}
{"compound": "O=C(N/N=C\\C=C\\c1ccc2c(c1)OCO2)C1COc2cc3ccccc3cc2O1", "note": "(stereo unspecified)", "Potency": "inconclusive [inhibitor, single point]"}
{"compound": "Cc1ccc(C)c(CN2CCCNC2=O)c1", "Potency": "inconclusive [inhibitor, single point]"}
{"compound": "COCCNC(=O)C(C)Oc1ccc(Cl)cc1Cl", "note": "(stereo unspecified)", "Potency": "active: 31.6 µM"}
{"compound": "CCOC(=O)c1c(NC(=O)c2cccs2)sc(C)c1C", "Potency": "inconclusive [inhibitor, partial curve]"}
{"compound": "COc1cccc(C2C(C#N)=C(C)NC3=C2C(=O)CC(C)(C)C3)c1", "note": "(stereo unspecified)", "Potency": "inconclusive [inhibitor, partial curve]"}
{"compound": "O=S(=O)(c1cccc(-c2cn3cccnc3n2)c1)N1CCCCCC1", "Potency": "inconclusive [inhibitor, partial curve]"}
{"compound": "Oc1ccc2ccccc2c1/C=N/c1nc2c(s1)CCCC2", "activity change, negative = inhibition": "inactive: -25.4%"}
{"compound": "COc1ccc2[nH]c(-c3ccc(C)cc3)cc(=O)c2c1", "Potency": "inconclusive [inhibitor, partial curve]"}
{"compound": "c1ccc(-n2ncc3c(N4CCN(CCOc5cccc6ccccc56)CC4)ncnc32)cc1", "Potency": "inconclusive [inhibitor, partial curve]"}
{"compound": "Cc1ccsc1C1Nc2ccc3ncccc3c2C2=C1C(=O)CC(C)(C)C2", "note": "(stereo unspecified)", "Potency": "inconclusive [inhibitor, partial curve]"}
{"compound": "O=C(c1n[nH]c(=O)c2ccccc12)N1CCN(c2ccccc2)CC1", "Potency": "inconclusive [inhibitor, single point]"}
{"compound": "OC[C@@H]1[C@@H](c2ccccc2)C(c2ccc(F)cc2)=NN1c1ccccc1", "Potency": "inconclusive [inhibitor, partial curve]"}
{"compound": "Cc1ccc2oc(-c3ccc(C)c(NC(=O)Cc4cccs4)c3)nc2c1", "Potency": "inconclusive [inhibitor, partial curve]"}
{"compound": "Cc1c(S(=O)(=O)O)oc2c1C(=O)C(=O)c1c-2ccc2c1CCCC2(C)C", "Potency": "inconclusive [inhibitor, partial curve]"}
{"compound": "CCCn1nnc2sc3c(c2c1=O)CCC(C)C3", "note": "(stereo unspecified)", "Potency": "inconclusive [inhibitor, partial curve]"}
{"compound": "CCOc1ccc(N=Nc2c(=O)[nH]n3c(C)cc(C)nc23)cc1", "activity change, negative = inhibition": "inactive: -18.6%"}
{"compound": "c1ccc(Cc2nnc3sc(C4COc5ccccc5O4)nn23)cc1", "note": "(stereo unspecified)", "Potency": "active: 14.1 µM"}
{"compound": "CC(C)(C)OC(=O)N[C@@H](Cc1ccccc1)c1nnc(S(=O)(=O)Cc2cccc(F)c2)o1", "Potency": "active: 3.98 µM"}
{"compound": "N#Cc1ccc(-c2ccc(F)cc2)nc1Oc1ccc(Cl)c(Cl)c1", "Potency": "inconclusive [inhibitor, partial curve]"}
{"compound": "CN(C)c1ccc(/C=N\\Nc2nc(-c3ccccc3)cc(=O)[nH]2)cc1", "activity change, negative = inhibition": "inactive: -9.14%"}
{"compound": "COC(=O)c1ccc(OCC(=O)Nc2nn(-c3ccccc3)nc2C(N)=O)cc1", "Potency": "inconclusive [inhibitor, partial curve]"}
{"compound": "Cc1ccc(NC(=O)N/C=C/c2ccco2)cc1", "activity change, negative = inhibition": "inactive: -25.6%"}
{"compound": "O=C(c1ccco1)N1CCC2(CCCN(c3ccccn3)C2)CC1", "activity change, negative = inhibition": "inactive: -26.9%"}
{"compound": "COC(=O)c1c(/N=C/NOCc2ccc(Cl)cc2)sc2c1CCN(c1ncc(C(F)(F)F)cc1Cl)C2", "Potency": "inconclusive [inhibitor, partial curve]"}
{"compound": "Cc1cc(C(=O)N/N=C/c2ccc(C)o2)c2ccccc2n1", "Potency": "inconclusive [inhibitor, partial curve]"}
{"compound": "C/C(CC(=O)NC1CCCC1)=N\\NC(=O)Cc1cccs1", "activity change, negative = inhibition": "inactive: -1.17%"}
{"compound": "CCn1nnc(NC(=O)c2ccc(-c3ccc(Cl)cc3)o2)n1", "Potency": "inconclusive [inhibitor, partial curve]"}
{"compound": "COc1ccc(C2C(C#N)=C(N)Oc3c2c(C)nn3-c2ccccc2)cc1Cn1nc(C)c([N+](=O)[O-])c1C", "note": "(stereo unspecified)", "Potency": "inconclusive [inhibitor, partial curve]"}
{"compound": "CC(=O)C1=C(C)Nc2ncnn2C1c1ccc(Cl)cc1Cl", "note": "(stereo unspecified)", "activity change, negative = inhibition": "inactive: -26.5%"}
{"compound": "Cc1c(OCC(=O)OC(C)(C)C)ccc2c3c(c(=O)oc12)CCC3", "Potency": "inconclusive [inhibitor, partial curve]"}
{"compound": "O=C(c1c[nH]c2ccc(F)cc2c1=O)N1CCCCCC1", "Potency": "inconclusive [inhibitor, single point]"}
{"compound": "Cc1cc(Nc2ccccc2F)n2ncnc2n1", "activity change, negative = inhibition": "inactive: -2.56%"}
{"compound": "Nc1ncnc2nc[nH]c12", "activity change, negative = inhibition": "inactive: -10.8%"}
{"compound": "COc1ccccc1NC(=O)c1c(NC(=O)c2ccco2)sc2c1CCC2", "Potency": "inconclusive [inhibitor, partial curve]"}
{"compound": "COC(=O)c1ccc(-c2nc3ccc(C)cc3o2)cc1", "Potency": "inconclusive [inhibitor, partial curve]"}
{"compound": "CN1CN(C)c2cccc3cccc1c23", "Potency": "inconclusive [inhibitor, partial curve]"}
{"compound": "O=C(/C(=N/N=C/c1ccc(O)c(O)c1O)c1ccccc1)c1ccccc1", "Potency": "active: 2 µM"}
{"compound": "Cc1ccc(/C=C/c2nnc(-c3cccc(C)c3)o2)cc1", "Potency": "inconclusive [inhibitor, partial curve]"}
{"compound": "CCOC(=O)C1C2C=CC3(CN(C4CCCC4)C(=O)C13)O2", "note": "(stereo unspecified)", "Potency": "inconclusive [inhibitor, single point]"}
{"compound": "O=C(/C=C/c1ccco1)NCC1CCCO1", "note": "(stereo unspecified)", "Potency": "inconclusive [inhibitor, single point]"}
{"compound": "Cc1cc(C(C)(C)C)cc(CNC2CCCCC2)c1O", "activity change, negative = inhibition": "inactive: -3.31%"}
{"compound": "COc1ccccc1/C=C\\C=N\\n1c(-c2ccc(Cl)cc2)n[nH]c1=S", "Potency": "active: 12.6 µM"}
{"compound": "CCNC(=S)N(Cc1cc2cc(C)ccc2[nH]c1=O)C1CCCC1", "Potency": "inconclusive [inhibitor, partial curve]"}
{"compound": "C=CCNc1nc2c(c(=O)[nH]c(=O)n2C)n1CCCCC", "activity change, negative = inhibition": "inactive: -8.81%"}
{"compound": "C=CCNC(=O)c1cc2c(=O)n3cc(C)ccc3nc2nc1NCC1CCCO1", "note": "(stereo unspecified)", "Potency": "inconclusive [inhibitor, partial curve]"}
{"compound": "CCOc1ccc(-c2cc3nc(C4CCN(C(=O)OC(C)(C)C)CC4)c(C(=O)O)cn3n2)cc1", "Potency": "inconclusive [inhibitor, partial curve]"}
{"compound": "COc1ccc(-c2nc(C#N)c(NCc3ccc(F)cc3)o2)cc1OC", "Potency": "inconclusive [inhibitor, partial curve]"}
{"compound": "CCC(=O)c1ccc(OCc2ccc(C(=O)OC)o2)c(OC)c1", "Potency": "active: 22.4 µM"}
{"compound": "Brc1cccc(CN2CCCCCCC2)c1", "activity change, negative = inhibition": "inactive: 4.71%"}
{"compound": "CCN(CC)S(=O)(=O)c1ccc(OC)c(NC(=O)CSc2cc(Cl)ccc2Cl)c1", "activity change, negative = inhibition": "inactive: -9.67%"}
{"compound": "Cc1noc(C)c1COC(=O)c1cc(=O)[nH]c2ccccc12", "Potency": "inconclusive [inhibitor, single point]"}
{"compound": "C=CCn1c(C)c(C(C)=O)c(N2CCCC2)nc1=S", "activity change, negative = inhibition": "inactive: -6.01%"}
{"compound": "COc1cccc(NC(=O)CSc2nc3c(oc4ccccc43)c(=O)[nH]2)c1", "Potency": "active: 15.8 µM"}
{"compound": "COc1cc(NS(=O)(=O)c2ccc(N/C=C\\C(=O)c3ccc(OC)c(OC)c3)cc2)nc(OC)n1", "Potency": "inconclusive [inhibitor, partial curve]"}
{"compound": "S=C(NCc1cccs1)Nc1ccccc1Cl", "Potency": "active: 14.1 µM"}
{"compound": "Cc1oc(C)c2c(=O)ccc3c(c12)OC(N)=C(C#N)C3c1ccc(F)cc1", "note": "(stereo unspecified)", "Potency": "active: 25.1 µM"}
{"compound": "C#CCNc1nc(C)nc2c1nnn2Cc1ccccc1F", "activity change, negative = inhibition": "inactive: -4.43%"}
